Test results as given in the supplement of paper PMC10126150.
Values marked as one replicate rest on one cluster of the flow cell; about a third of the high ones do not repeat.

System: ATP
Assay: switch fluorescence ratio, 500 uM ATP over buffer (Cy3 cluster intensity, sum of 5 cycles each) (fold (ratio)); higher = stronger signal-on switching upon ATP binding; sequences stand for … in TCGTCGGCAGCGTCAGATGTGTATAAGAGACAGTTTTTTTTTTTTTTTTTTTTTTTTT…TC
Conditions: aptamer strand: ATP DNA aptamer (quencher-CACCTGGGGGAGTATTGCGGAGGAAGG + anchor), 100 nM annealed; ATP concentration: 500 uM; one replicate
In short: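 The fluorescence ratio divides summed target-cycle Cy3 intensity by summed buffer-cycle Cy3 intensity for each cluster and is averaged per switch-domain sequence. Cy3-labelled switching-strand clusters on a modified Illumina MiSeq flow-cell were annealed to 100 nM quencher-labelled ATP aptamer, then imaged in selection buffer and again after 15 min with 500 uM ATP at 22 °C. Five such cycles were run, with NaOH stripping and re-annealing between them, and clusters outside 100-1000 RFU were excluded.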
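Also: ATP exposure 15 min at 22 °C before imaging.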

Row | Sequence | switch fluorescence ratio
1 | ATGAGATTTC | 0.999
2 | CCATTGCAGA | 1.15
3 | CTTAAATGGT | 1.01
4 | GGTGGTGAAC | 0.945
5 | ACGCATAGGG | 1.17
6 | CTTACGACAA | 2.23
7 | TAGCACCTGG | 1.01
8 | GAAATGGCGG | 1.02
9 | CGCAGTAATC | 4.13
10 | TCGCTGCCCT | 0.97
11 | AGTGTTCTAT | 0.955
12 | CAGGATGGCA | 0.935
13 | ATGCTGAATT | 1
14 | GTTGCCGGAC | 1.01
15 | GCAGCCACCC | 1.18
16 | GGGAGACCTA | 0.95
17 | TTATCAAACG | 0.987
18 | CAACAGCTAG | 0.995
19 | AGCTCACAAG | 1.01
20 | CAAGGATGTT | 0.961
21 | GGGGTCAGCT | 0.982
22 | CATCCCCTGT | 1.05
23 | TCGACCCTGG | 1.11

Row | Sequence | switch fluorescence ratio
24 | CATAGTGGTC | 0.96
25 | AGTCGTAGCT | 1.02
26 | CCGGACCAGC | 1.58
27 | TTGAAGATGG | 0.965
28 | TAGATCACGC | 1
29 | GAGCAGTTGT | 0.955
30 | AGGGGGACTA | 1.05
31 | CGAGTTTCGT | 0.981
32 | ACCGTCCGCC | 2.5
33 | CCTACTTGAT | 1
34 | TTGGTCCTTG | 1
35 | TAAAAGTTGC | 0.961
36 | CAGGTGCCTA | 1.16
37 | TAAGTACGCT | 1.24
38 | TCATAAAGCT | 1.06
39 | TTGTTATGCT | 1.02
40 | AGACCCAGGA | 1.01
41 | GGGCGACGTC | 1.02
42 | TTGTCATACC | 1.05
43 | CTTATATGTA | 1.02
44 | GGTCGCTGGA | 1.24
45 | TAATGGTCAG | 0.962
46 | ACTAATGCG | 1.05

Row | Sequence | switch fluorescence ratio
47 | ACGGACTAA | 1.24
48 | TTTAGCCTCT | 0.967
49 | CTGCTCAAGC | 1.06
50 | CAAAGGGATG | 0.994
51 | GCCTATAATG | 1.01
52 | TTCACTTCGC | 1.3
53 | CAGGAATTGT | 0.982
54 | AAGATTCATG | 0.995
55 | TCGGGCTTGC | 1.05
56 | AGCGTTGGGT | 1.03
57 | CCTGGGTACT | 1.03
58 | AGCTGGTTA | 1.05
59 | CAGCTATTCG | 1.05
60 | GGGTTTACTC | 1.03
61 | CATGAGTATA | 1.01
62 | CTGCATCCGA | 1.37
63 | GCACGAGAGA | 1.01
64 | CTGACGAATA | 3.35
65 | AAAGGGTAAA | 1.07
66 | TTTCCAG | 1.04
67 | GCTGCAAAGC | 1.09
68 | ATGCTCTTTT | 0.965
69 | GGGTCCGTCC | 0.994

Row | Sequence | switch fluorescence ratio
70 | CCTCACACTT | 1.15
71 | AAGACACAGC | 1.09
72 | GGGTAGAT | 0.991
73 | TAGCTATTCG | 0.974
74 | TATGGCCGGT | 1.03
75 | TAATATGTCA | 0.996
76 | GGTCTCTGTA | 1.01
77 | ACGAGGGCTC | 0.998
78 | AGCGGCGGAG | 0.964
79 | CGTTAGCAGT | 1.12
80 | GTGCGGCT | 0.978
81 | GGGCAATC | 2.88
82 | ACGAAACAGT | 1.09
83 | ACTGGGTATA | 0.999
84 | GCTGGAGCCG | 1.07
85 | TTATTGCTC | 1.09
86 | GAAAATGATT | 0.986
87 | CACGTCCAAC | 1.16
88 | GTGCTACACG | 0.959
89 | TCGTTTGCGC | 1.02
90 | CACTCCTAAT | 1.12
91 | TTCTGCACTG | 1.08
92 | GTGGCTATTT | 1.02

Row | Sequence | switch fluorescence ratio
93 | CAGATGAACA | 0.994
94 | GGAATTGCAA | 0.989
95 | CTCAACGGAA | 1.25
96 | TGATTCACAT | 1.03
97 | GATTGAGGCT | 1.03
98 | GAGGGATTAG | 1.04
99 | AACGCGCGTC | 1.01
100 | ATCCCGAATT | 0.995
101 | ACTTAGGTTT | 1.07
102 | ATACATTTT | 1
103 | CAGGCCTGCC | 1.14
104 | TCATCGGCGC | 1.23
105 | GTACGAGCTA | 1.15
106 | TGGTACATGT | 1
107 | TGACGGAAAC | 1.8
108 | GCCGGTTGGG | 0.967
109 | AGACTCTGCA | 1.83
110 | GTCTCATTTT | 1.02
111 | GCATGCTGAT | 1
112 | TGAATACCTT | 1.13
113 | TATCACTGGG | 1.06
114 | TTTATGATAT | 1.02
115 | TTGCTATCGG | 0.975

Row | Sequence | switch fluorescence ratio
116 | AGGAAGAGG | 0.956
117 | TAGTCCGTAT | 1.02
118 | CTGACGGTTG | 1
119 | TATACGGGTA | 1.03
120 | TAACTCCGGG | 1.1
121 | GCCGGACACT | 1.03
122 | ATTCAGGAGG | 0.996
123 | TAGGTCGACA | 0.999
124 | GGGCTTCAGC | 0.978
125 | CTCTTAAGGA | 0.994
126 | AAGCTTAACG | 1.01
127 | TGCAAGGAAA | 1.02
128 | CATAGGCA | 1.11
129 | GTGCGTGATG | 0.968
130 | CGGGTGTAC | 1.17
131 | TTCGTTCGG | 1
132 | CGAGCGAGTC | 0.96
133 | TCAAGCTTAT | 1.01
134 | TTCTTACTTC | 1.05
135 | TCTAACATGG | 1.01
136 | CACGATCTAT | 0.993
137 | TCAACGTTGA | 0.975
138 | AAGCATCGTG | 1

Row | Sequence | switch fluorescence ratio
139 | GGTGAAAAAT | 1.03
140 | TCTCATGAGT | 0.99
141 | CTGTTATACG | 1.1
142 | ATCTGCAGGA | 1.02
143 | CACTTGTAGC | 1.05
144 | TAAACTTTTC | 1.01
145 | TCTTTTACAC | 1.02
146 | ACTCCAGCTT | 2.55
147 | CACGCAGATC | 1.75
148 | CATACACGTA | 1.17
149 | ACCTATGCCG | 1.09
150 | GAGACAGAAG | 1.03
151 | GTTTCATGGC | 0.984
152 | AAAGTTTCTA | 0.992
153 | AGTTGTGGCT | 0.974
154 | AGTCGTACAG | 0.968
155 | TTGCGACCAG | 1.03
156 | GAGAGAACCT | 1.8
157 | GGCGAGTATT | 1.01
